From publication PMC4336329 (PLoS ONE, 2015)
The whole screen tested about 310,000 compounds, of which about 2,200 (0.71%) showed an effect of 50% or more. The effect is printed as a negative number. This is one part of the list.

target: human ether-à-go-go-related gene (hERG) potassium channel (human, UniProt Q12809); assay: primary screen, population patch clamp on CHO cells stably expressing hERG
Sequence (Q12809 whole entry, looked up): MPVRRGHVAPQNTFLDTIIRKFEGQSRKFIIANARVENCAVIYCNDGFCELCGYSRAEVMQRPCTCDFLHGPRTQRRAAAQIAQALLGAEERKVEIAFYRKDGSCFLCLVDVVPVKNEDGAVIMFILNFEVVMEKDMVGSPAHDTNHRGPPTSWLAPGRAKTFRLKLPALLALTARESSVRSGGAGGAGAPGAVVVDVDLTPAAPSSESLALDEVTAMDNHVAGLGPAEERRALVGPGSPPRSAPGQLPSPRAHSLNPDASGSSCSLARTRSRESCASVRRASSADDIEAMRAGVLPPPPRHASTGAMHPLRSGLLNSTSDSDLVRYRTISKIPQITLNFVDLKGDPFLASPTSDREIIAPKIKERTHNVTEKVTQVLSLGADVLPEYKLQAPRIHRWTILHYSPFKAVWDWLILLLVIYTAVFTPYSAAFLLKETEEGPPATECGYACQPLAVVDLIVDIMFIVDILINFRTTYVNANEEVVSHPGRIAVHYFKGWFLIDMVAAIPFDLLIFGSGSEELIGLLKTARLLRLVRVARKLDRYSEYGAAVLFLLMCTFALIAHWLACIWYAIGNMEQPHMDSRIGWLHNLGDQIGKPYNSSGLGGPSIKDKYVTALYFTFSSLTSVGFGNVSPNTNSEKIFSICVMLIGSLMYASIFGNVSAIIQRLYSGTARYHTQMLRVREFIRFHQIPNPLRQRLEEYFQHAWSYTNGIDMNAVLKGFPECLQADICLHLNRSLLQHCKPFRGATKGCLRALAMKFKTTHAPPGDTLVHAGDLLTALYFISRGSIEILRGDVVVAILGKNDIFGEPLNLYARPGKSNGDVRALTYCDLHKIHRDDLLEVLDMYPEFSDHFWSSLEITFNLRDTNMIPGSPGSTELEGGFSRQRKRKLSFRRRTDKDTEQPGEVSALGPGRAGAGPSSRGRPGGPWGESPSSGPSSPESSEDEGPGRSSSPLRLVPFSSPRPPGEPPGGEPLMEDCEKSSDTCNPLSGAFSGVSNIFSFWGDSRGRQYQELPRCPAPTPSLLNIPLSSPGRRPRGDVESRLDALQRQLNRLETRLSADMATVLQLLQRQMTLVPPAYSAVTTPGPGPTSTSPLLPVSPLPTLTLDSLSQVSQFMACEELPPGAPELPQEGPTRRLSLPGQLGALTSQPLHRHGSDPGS

Structure (SMILES)	hERG current change (%, negative = inhibition) at 1uM
CCOC(=O)c1cn(C2CC2)c2c(F)c(F)c(F)cc2c1=O	10.3%
COc1cc(CNn2c(C)n[nH]c2=S)cc(Cl)c1OCc1ccccc1	3.88%
CC(=O)c1ccc(N2CCN(S(=O)(=O)c3c(C)[nH]c(C)c3C(=O)N3CCCC3)CC2)cc1	2.12%
COC(=O)CSc1nnc(-c2ccc(S(=O)(=O)NCc3ccccc3Cl)cc2)o1	-0.0977%
CC(C(=O)NC1C(=O)N2C(C(=O)O)=C(CSc3nnnn3C)CSC12)n1cc(Cl)cn1 (stereo not drawn)	11.9%
COc1ccc(N2CCN(C(=O)COC(=O)c3ccccc3OCc3ccc(F)cc3)CC2)cc1	10.8%
CCOc1ccc(OCC(=O)NCCS(=O)(=O)N2CCN(c3ccc(F)cc3)CC2)cc1	9.86%
CCOC(=O)c1[nH]c(C)c(C(=O)NC(C)CC)c1C (stereo not drawn)	9.79%
CC(C)(C)C(=O)[C@@H]1[C@@H]2C(=O)N(c3ccc4c(c3)OCCO4)C(=O)[C@@H]2C2c3ccccc3C=CN21 (stereo partly drawn)	-8.57%
Nc1ccc(Oc2ccc3c(c2)C(=O)N(CC2CCCO2)C3=O)cc1 (stereo not drawn)	12%
O=C(NCCN1C(=O)S/C(=C/c2cccnc2)C1=O)c1cccs1	15%
Cc1cccc(NC(=O)CSc2nnc(CSc3nc(C)cc(C)n3)o2)c1	15.5%
COc1cc(-c2nnc(COC(=O)c3cc(C)no3)o2)cc(OC)c1OC	2.63%
O=C(NCCCn1ccnc1)C(=O)NCC1OCCN1S(=O)(=O)c1cc(F)ccc1F (stereo not drawn)	7.71%
COc1ccc(/C=N/NC(=O)Cn2cnc3ccccc3c2=O)cc1	13.6%
COC(=O)C1=C(c2ccc(S(C)(=O)=O)cc2)C[C@@H]2CC[C@H]1N2C(=O)NCC1CC1	-2.95%
Cc1cccc(C2CC(c3ccccc3)Nc3ncnn32)c1 (stereo not drawn)	1.02%
COc1ccc(CNC(=O)CCNS(=O)(=O)c2ccc(C)cc2)cc1	0.121%
O=C1C=C(c2ccccc2)C[C@H](c2cccs2)[C@H]1n1nnc([N+](=O)[O-])n1	9.62%
CC1=CC(c2ccc(Cl)cc2)n2nc(NC(=O)c3ccccc3)nc2N1 (stereo not drawn)	-8.25%
Cc1c(C(=O)c2ccccc2C(=O)O)sc2ccccc12	8.32%
COc1ccc(CNC(=O)COC(=O)CC(NC(N)=O)c2ccc(Cl)cc2)cc1OC (stereo not drawn)	0.856%

Structure (SMILES)	hERG current change (%, negative = inhibition) at 1uM
CS(=O)(=O)c1ccc(NC(=O)CCN2C(=O)C3CCCCC3C2=O)cc1 (stereo not drawn)	-0.267%
Cc1cccc(C)c1OC(=O)CN1C(=O)c2ccccc2C1=O	16.4%
CN(CC(=O)Nc1ccccc1C(=O)N1CCCC1)S(=O)(=O)c1ccc(Br)cc1	-4.28%
O=C(Nc1ccc(N2CCOCC2)c(Cl)c1)c1ccco1	7.93%
CCC(=O)N1C(=O)CCN(C(C)=O)c2ccccc21	-0.334%
Cc1nnc(NC(=O)C2CC(=O)N(Cc3ccccc3)C2)s1 (stereo not drawn)	8.02%
CCSc1nc2c(c(=O)n1-c1ccc(F)cc1)SCC2	0.341%
Cc1ccc(OCC(=O)N(Cc2ccc(C)o2)C2CCS(=O)(=O)C2)cc1 (stereo not drawn)	-26%
O=C1CC(NS(=O)(=O)c2cccs2)CN1c1cccc(F)c1 (stereo not drawn)	6.88%
CCOC(=O)c1cc(-c2csc(Nc3c(C)cc(C)cc3C)n2)on1	14.4%
COC(=O)[C@@H]1C[C@]2(C(=O)O)c3ccccc3N(OOSc3ccccc3)[C@@H]2N1C(=O)OC	17.2%
Cc1ccc(CNC(=O)C2CCCN(S(=O)(=O)c3cnc[nH]3)C2)cc1 (stereo not drawn)	5.14%
CCCn1c(Nc2ccccc2C)nc2ccccc21	1.83%
C/C(=N\NC(=O)c1cc(Br)ccc1O)c1cccs1	15.2%
COc1ccccc1C(=O)NC(=O)COC(=O)c1ccco1	8.07%
Cc1ccc(C(=O)NCc2ccccn2)o1	12.8%
COc1cccc(C(=O)Nc2ccc3c(c2)C(=O)NC3=O)c1	3.17%
CCOC(=O)c1sc2nc(CSc3ccccc3)nc(N3CCC(C(N)=O)CC3)c2c1C	22.7%
Cc1cc([N+](=O)[O-])cc(/C=N/n2c(C)nc3ccccc3c2=O)c1O	3.92%
CCOC(=O)C1CCCN(C2CC(=O)N(c3ccccc3)C2=O)C1 (stereo not drawn)	3.24%
CC1=Nc2cc(C(=O)N3CCCC3)ccc2Sc2ccc(C)cc21	3.5%
COc1cc(OC)cc(-c2c(-c3cccs3)c3cc(-c4ccn[nH]4)ccc3n2C)c1	6.29%

Structure (SMILES)	hERG current change (%, negative = inhibition) at 1uM
COc1ccc(-c2csc(NC(=O)CSCC(=O)Nc3cc(C)on3)n2)cc1OC	14.3%
COc1ccc(/C=C/c2nc(S(=O)(=O)c3ccccc3)c(NCCCN(C)C)o2)cc1OC	-2.41%
CCCCNCCCCOc1ccccc1	16.3%
CC(C)c1nc2sc3c(=O)n(N)cnc3c2c2c1COC(C)(C)C2	9.7%
Clc1ccccc1OCCN1CCC(Cc2ccccc2)CC1.O=C(O)C(=O)O	10.6%
COc1ccc(/C=N/NC(=O)CNS(=O)(=O)c2ccccc2)cc1	1.47%
CC(C(=O)Nc1nc2ccccc2s1)n1cc([N+](=O)[O-])cn1 (stereo not drawn)	-39.6%
CCN(CC)S(=O)(=O)c1ccc(/C=C/C(=O)Nc2ccc(F)c(F)c2F)cc1	4.84%
CCC(=O)Nc1ccc(Cl)c(NC(=S)NC(=O)COc2ccc(Cl)cc2)c1	7.5%
Fc1ccccc1-c1n[nH]c(=S)n1C1CC1	15.2%
Cl.Fc1ccc(C(c2nnnn2Cc2ccco2)N2CCN(C3CCCCC3)CC2)cc1 (stereo not drawn)	-46%
CCOC(=O)C(C)Sc1nc2ccccc2c(=O)n1CC (stereo not drawn)	-2.85%
CCOC(CCNC(=O)c1cc(-c2cccs2)nc2ccccc12)OCC	7.14%
CCn1c(N)c(C(=O)Nc2ccccc2C(=O)OC)sc1=S	13.6%
COc1ccc(-c2nc(CS(=O)(=O)CC(=O)NCc3ccc4c(c3)OCO4)c(C)o2)cc1	11.6%
O=c1c2ccccc2nnn1Cc1nnc(-c2ccccc2Br)o1	-0.697%
CCOC(=O)N1CCN(C(=O)Nc2ccccc2)CC1	6.12%
Cc1nn(C)cc1/C=N/NC(=O)Cn1nccc1C	3.69%
N/C(=N\OC(=O)C1CCCCC1)c1ccc(Br)cc1	-1.27%
CCC(CO)Oc1cc(NC(=O)c2cccc(Cl)c2)c2ncn(C(C)C)c2c1 (stereo not drawn)	13.9%
COC(=O)C1(C(=O)OC)NOC2C(=O)N(c3ccccc3)C(=O)C21 (stereo not drawn)	1.09%
COc1ccc(/C=C/c2nc(-c3ccccc3O)n[nH]2)cc1OC	14.9%

Structure (SMILES)	hERG current change (%, negative = inhibition) at 1uM
CC(C)CC(=O)Nc1nnc(S(=O)(=O)N(C)c2ccc(Cl)cc2)s1	9.97%
N/C(=N\OC(=O)c1cccc(F)c1)c1ccccn1	20.9%
Cc1cccc(C)c1OCc1cc(C(=O)N2CCCCCCC2)no1	12.3%
CN=c1scc(C)n1/N=C/c1ccc2c(c1)OCO2	13.8%
C=CCNC(=O)c1onc(CSc2ccc(F)cc2)c1C(=O)NCC=C	1.73%
COc1ccc(NC(=O)C2CCCN(S(=O)(=O)c3cccc4cccnc34)C2)cc1OC (stereo not drawn)	4.52%
Cc1cccc(C)c1OCc1n[nH]c(=S)o1	11.5%
COc1cc(/C=C(/Sc2nnc(-c3ccc(F)cc3)o2)C(=O)O)ccc1OC(F)F	14.2%
Cc1ccc(Cc2cnc(N3C(=N)SC(c4ccccc4)C3=O)s2)cc1 (stereo not drawn)	8.23%
COC(=O)Nc1ccc(S(=O)(=O)N2CCC(C(=O)N(C)C3CCCCC3)CC2)cc1	1.74%
CSCCNC(=O)c1ccc(OC2CCN(S(=O)(=O)N(C)C)CC2)cc1	6.09%
O=C(Cn1ncc(Cl)c(Cl)c1=O)NCC1CCCCC1	-7.26%
O=C(/C=C\c1ccco1)Nc1ccc(N2CCN(C(=O)c3ccccc3)CC2)cc1	-24.3%
COc1ccc(S(=O)(=O)N2CCOCC2)cc1NC(=O)CN(C)Cc1c(F)cccc1Cl	0.297%
O=C(NCCS(=O)(=O)N1CCN(Cc2ccccc2)CC1)c1ccc(F)cc1	-10.9%
Cc1cnc([N+](=O)[O-])n1CCOC(=O)NC(=O)c1ccccc1Cl	8.43%
O=C(COC(=O)c1ccccc1C(=O)c1ccccc1)NCCc1ccccc1	0.415%
COc1ccc(C(=O)NC(=S)N(C)C2CCCCC2)cc1Br	5.69%
CCCCN(C)C(=O)c1ccc2c(c1)N(CC)C(=O)c1ccccc1S2(=O)=O	4.4%
CCCCCCn1c(O)c(C=NCCN2CCCCC2)c(=O)[nH]c1=O	-6.33%
Cc1ccc(C2(C)NC(=O)N(CC(=O)Nc3ccc4c(c3)OCO4)C2=O)cc1 (stereo not drawn)	4.69%
